# The list shows a part of the results.
# Test system: PF3D7_0420300 AP2 domain 1 (GST-tagged)
# Assay: gcPBM binding intensity (ln(normalized median fluorescence intensity)); higher = stronger DNA binding
# Summary of the method: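 The highest Masliner-normalised natural-log median intensity across replicate spots of either probe orientation is reported as binding intensity. GST-tagged P. falciparum DNA-binding domains expressed in E. coli were applied for 1 h to an Agilent 4 × 180k array of primer-extended double-stranded 36-bp intergenic genomic probes plus negative controls, and bound protein was detected with Alexa488 anti-GST antibody and scanned at 488 nm.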
row,Sequence,gcPBM binding intensity (ln)
1,TTCTTACATGAGTGTACACACTTTTTTTCAGAAAAT [CACACA_site4215],9.19
2,GGTGGGGAGGAGTAATGTACAAATTAACATATTATG [XGTACX_site6666],9.52
3,TTATAAAATATTTATGCATGTGAAGAATATTATAAA [TGCATGCA_site1047],9.17
4,GAAAAAAGTATCAAGGTGCGTATATACATCAAAATA,9.47
5,AATAGTCGGGTGCATACACACCTTAAATATAATATA [CACACA_site8271],9.25
6,TTTGAATAAAAACAAAAAATTAAATTAAATTAAATA [CACACA_negctrl_site312],8.93
7,ATTGTGTTAATAAAATGTACATTTTCTCTACATTAA [XGTACX_site2766],9.23
8,TATTTATAATTATAATAATATATATATATATATATA [TGCATGCA_negctrl_site173],8.83
9,ATATATATATATGTATGTACGTATGTATTTACTGCT [XGTACX_site3839],9.36
10,TTCATACATATTTGAAGTACATTTAAAAATGTCCTT [XGTACX_site747],8.93
11,TCCAATATATTTATGAGTACTTATAAATTATACGTT [XGTACX_site742],9.23
12,ATATATGTGTATGTATGTACTTATATTTTTTTTTAT [XGTACX_site1733],9.41
13,GCAAATCAATTTTTTTTTAAAACTCATTTTTTCGTT [CACACA_negctrl_site1136],9.22
14,TCCGTTATATATGTGTGTACATATAATATATCCTCA [XGTACX_site2588],9.57
15,AAAAATGAAAGTAAGACATGCATGGAATTTTTTTTA [TGCATGCA_site347],9.2
16,TTTTTTTTTTATGAAAGTACATATGAAAAATACGAA [XGTACX_site3451],8.93
17,ATTAAATAAAAAAACACACACATATATACCTATATA [CACACA_site5837],9.95
18,AATAAAACATAATAATGTACTCAAAGGTTTAACTTG [XGTACX_site4711],9.29
19,CAAAACATTTTATCTACACACATATATAAATAAATA [CACACA_site3220],9.52
20,AAAATAAAAGAATAAAAATATGAAACTTTTTTAAAA [GTGCAC_negctrl_site348],9.05
21,AACGTGTGGAGAATTATAAATGAGTAAAAAATATAT [XGTACX_negctrl_site562],9.52
22,GGGGGGAGGGTGAATACACACGTAATAATCATAAAC [CACACA_site8502],10.3
23,TAATAATAGTAAATATGTACATATATATATATATAG [XGTACX_site4602],9.26
24,TAAAATTTACGGTCTTGTTGCGCAACCAACATTGTC [CACACA_negctrl_site1175],9.2

# Source: the supplement of paper PMC11417369
